# Measurements as given in paper PMC12136788.
# This is one part of the list.
# T1: UNK ZnF1-3 (human, UniProt Q9C0B0 31-174)
# T1 sequence: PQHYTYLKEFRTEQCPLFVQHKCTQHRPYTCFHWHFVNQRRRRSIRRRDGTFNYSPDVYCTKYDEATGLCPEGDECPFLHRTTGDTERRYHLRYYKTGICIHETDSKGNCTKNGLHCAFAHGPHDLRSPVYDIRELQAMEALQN
# B1: 25290430_25290550_1042_CDS_ENSMUSG00000026944_ENSMUST00000102919|mouse|control|control (ssRNA)
# RNA: GGGAGUUCUACAGUCCGACGAUCCAGCAGGGCAAGGGCUGAUAGGACAUCCACAUCCUGCAGAAGUUUCUGGGCAUCCAGCAGGUCCCCUAAGAGUGCCGGCAGGCUCUGUGGGGACGGUGCCUGUGGCUGGGGAUCUGAGCCCAACAGAGGAUUGAGCAUCA
# B2: chr15:42481402:42481403:-_ENSG00000166887_ENST00000318006|hu_mus|motif|central (ssRNA)
# RNA: GGGAGUUCUACAGUCCGACGAUCCUUUGAGACUGUAGUGAUUUGUUGAAAUGUCAGUAAGUCAUGGACAUAAAUGUUGUUUUCGGACAAGCUGACCAGAAUCUUAAACUGGGAAACCACAUGGAUCUGCUGGAUCUUUUUGGACAACAGAGGAUUGAGCAUCA
# B3: 20240214_20245657_251_3pUTR_ENSMUSG00000001924_ENSMUST00000001989|mouse|control|control (ssRNA)
# RNA: GGGAGUUCUACAGUCCGACGAUCGACUGUGCAGGGGAGCAGUUAGAACCCGGCUUUGGAUCAGGCCCGGACACGCGACGUUUCUUGGACAGCGGCGAGCUGGACAUCAAUGCCGGUUCCCCGGGUCGUGCCGCCGCCAACUCCCAACAGAGGAUUGAGCAUCA
# B4: chr12:103220247:103220248:+_ENSMUSG00000041781_ENSMUST00000047357|mus_hu|FALSE|FALSE (ssRNA)
# RNA: GGGAGUUCUACAGUCCGACGAUCCAGGGAAUCAAUAAUAUCCAUAGAAAAGUGCUCAUCCCAGCCACAGUCCAAUAAAAAUCUAAACUCAUCAACUUGGAGAAGAUAGCAAAGGGCAGAUUCUUCUUGGACCCCAGAAAGGGUCAACAGAGGAUUGAGCAUCA
# B5: chr1:82725849:82725850:+_ENSMUSG00000026150_ENSMUST00000078332|mus_hu|FALSE|FALSE (ssRNA)
# RNA: GGGAGUUCUACAGUCCGACGAUCGGACCCUCAUUCGCUGACUAAUGCCUUCAGUAUAUUCCAUUUCGUACUGAAUUCGACUAAUUUCUGCCAUCUCAGCAGCAGUGGGAGAAGGAAAUGCUGCCCUGCUCACCAAAUGUGUAACAACAGAGGAUUGAGCAUCA
# B6: chr1:225977404:225977405:+_ENSG00000143742_ENST00000304786|hu_hu|motif|central (ssRNA)
# RNA: GGGAGUUCUACAGUCCGACGAUCAAUACAUGGAUCUGACAAAAUGGUUACAUUUAAUGUUCUUUUAAAGAAAGAUGAACGGAAUUUAAGAAGAAUUGGUUUUUCCUAAUAUCUCAUUUUCAAAUUACUGAUACAAAUUUGCCACAACAGAGGAUUGAGCAUCA
# B7: chrX:135579806:135579807:+_ENSG00000102241_ENST00000218364|hu_hu|FALSE|FALSE (ssRNA)
# RNA: GGGAGUUCUACAGUCCGACGAUCCCAAGUUGGUGCCGCUCAUGUUUCCUACCUAGCUCAGGAGCAGGGUUCAGAAGAACUAAGAGGCCGAAAUGACGCUGGAGCUGAGCAGAGAAAGGGAGGUCAACCGCGCUCUGCUCGCGCCAACAGAGGAUUGAGCAUCA
# B8: 80078447_80078756_806_CDS_ENSMUSG00000022412_ENSMUST00000023048|mouse|control|control (ssRNA)
# RNA: GGGAGUUCUACAGUCCGACGAUCCUGCAGGGACAUGCGGAGUCGUGACUUCUUCAAGUCUACCUGGCCCCUCCUGGCCAAUGGUUUGGGCCGGGGUGGGCAGAAUGUAUCUGUGUCAAAGGCAGAAGAGUCUGUGGGAAGGGUCAACAGAGGAUUGAGCAUCA
# B9: 98488212_98488546_5419_CDS_ENSMUSG00000079487_ENSMUST00000087948|mouse|control|control (ssRNA)
# RNA: GGGAGUUCUACAGUCCGACGAUCUGCAUGGUGUAGAAGGUCUGGAGGCACUGUCACACCAUAGGGGCCACUCCGACCUGGCCCCAUGCCAUAGUCCUCGUUCUUGGUGGCUGGCUGGCUGCGUUUUUUGCCCUUGGUAGACUUCAACAGAGGAUUGAGCAUCA
# B10: chr9:95013113:95013114:-_ENSG00000196305_ENST00000443024|hu_hu|hu_hu_hu_mus_False|28_98 (ssRNA)
# RNA: GGGAGUUCUACAGUCCGACGAUCCUCAGUCAGAAAGGGUGUGUAGGGGGCCAUCAGUCUGCACAGAGAAAGCAGGACACUGAACAGUGUCUCCAGAGCCAUGACACAAUCCUCCAUCCCACUCUCACCCUUUAACCUCCUCCUCAACAGAGGAUUGAGCAUCA
# B11: 37126873_37304194_710_3pUTR_ENSG00000147905_ENST00000336755|human|control|control (ssRNA)
# RNA: GGGAGUUCUACAGUCCGACGAUCCUAUCUGGGCCUCAAUGUCUUUGUCACUGAUGGACCAGUUUAUACCAUCUUCUCCUUCAGUAACAGAGUUUUCACAUCCCACAAGGUUGAGAAGGAUAUCAUCAUCUUUAUCAUCUACUUCAACAGAGGAUUGAGCAUCA
# B12: chrX:17854524:17854525:+_ENSMUSG00000037369_ENSMUST00000044484|mus_hu|FALSE|FALSE (ssRNA)
# RNA: GGGAGUUCUACAGUCCGACGAUCUCGUGAAUUACUCUCAUUAGUGACAAAAAGCAGAUCAAAAACCUCCACUUCACAAAUGCUACAGUAAUGAGCUGGUUCUUCUUUUGUCCGCCCAUGCCAUAUAAUCUCUUUUCCUGCAGCCAACAGAGGAUUGAGCAUCA
# B13: chrX:98862621:98862622:+_ENSMUSG00000034160_ENSMUST00000044475|mus_hu|mus_mus_mus_hu_False|48_78 (ssRNA)
# RNA: GGGAGUUCUACAGUCCGACGAUCCUGCAUCUCCUUUAGAGUGUUUCCCAUAUUAGAAUAAGCAUCAGCAAAGGUAGGACUGAUUCGUAUGGCUUCUUUAUAAUGCAUCAGAGCUUCCUGCAGUUUUCCCUGCUGCUGCAGUACCAACAGAGGAUUGAGCAUCA
# B14: chr17:13113627:13113628:+_ENSMUSG00000068039_ENSMUST00000151287|mus_hu|FALSE|FALSE (ssRNA)
# RNA: GGGAGUUCUACAGUCCGACGAUCAAGCUUCAUUUUUGUUUUUUGCAGGCUGAAGUCAAGGCAAGCAAUUUUUGCAUUUACGAUUCUCUUGGGCAUGCCCUGGGAUCCCACCACACAGUUGAGUGCAUAGCCACUGAUGAGCAUCAACAGAGGAUUGAGCAUCA
# Target: T1, UNK ZnF1-3
# Assay: nsRBNS (natural sequence RNA bind-n-seq); RBNS binding buffer (assumed for nsRBNS): 25 mM Tris pH 7.5, 150 mM KCl, 3 mM MgCl2, 0.01% Triton X-100, 500 ug/ml BSA, 20 U/ml SUPERase-In, 4 C; UNK is unkempt and MSI1 is Musashi-1; names of the RNAs are library labels; protein concentration not given here; high values mean tight binding
row,Binder,binding signal
1,B1,1.09 enrichment R
2,B2,0.58 enrichment R
3,B3,0.685 enrichment R
4,B4,1.6 enrichment R
5,B5,0.934 enrichment R
6,B6,0.592 enrichment R
7,B7,1.09 enrichment R
8,B8,0.925 enrichment R
9,B9,0.916 enrichment R
10,B10,1.2 enrichment R
11,B11,0.748 enrichment R
12,B12,0.725 enrichment R
13,B13,1.15 enrichment R
14,B14,0.859 enrichment R
